The structures appear in SMILES notation. Hit rate of the full screen: of about 150,000 compounds, about 540 (0.36%) showed an effect of 50% or more. Some of the results follow.

This assay relates to Plasmodium falciparum. Nature of the assay: Primary screen in NF54 nanoGlo assay, in single point, at 2uM, 72h; a lower Z score goes with more inhibition. As to conditions: timepoint 72 hour. The format is functional, Erythrocyte.
Broadly, the % Inhibition is the relative decrease from the control value, in per cent. As for `COCc1nc(CN2CCOc3c(Cl)cccc32)cs1`, the “% Inhibition” value is given as -1% and the Z score is listed as 0.12.

In the case of `C(#CCN1CCCCC1)COC(c1ccccc1)c1ccccc1`, the “% Inhibition” value is reported as 1% and the Z score is -0.17.

Consider `CO[C@H]1C[C@@H](CO)N(C(=O)Nc2cnc(C(F)(F)F)cc2C)C1`, for which the “% Inhibition” value is -10% and the Z score came to 1.99.

Consider `CN(Cc1nnnn1CC(F)(F)F)C1(CO)CC1`, for which the “% Inhibition” value turned out to be 8% and the Z score is listed as -0.83.

For `C[C@@H](CN1CCOCC1)NC(=O)C1C(=O)CC(C)(C)CC1=O`, the “% Inhibition” value is recorded as -10% and the Z score was 1.58.

For `O=C(Nc1cccnn1)NC1CCOC(c2ccccc2)C1` (stereo not drawn), the “% Inhibition” value was -5% and the Z score was 0.72.

Regarding `CC(C)(CNC(=O)c1ccc(Cl)cc1Br)C(N)=O`, the “% Inhibition” value is recorded as -10% and the Z score amounted to 1.29.

With `COCCN1C[C@@H](CNC(=O)Nc2cccc3nc(C)ccc23)CC1=O`, the “% Inhibition” value is listed as -8% and the Z score is recorded as 1.22.

For the compound `Cc1ccc(-c2cc3c(N4CCC(C(=O)NCCCc5ccccc5)CC4)nccn3n2)cc1C`, the “% Inhibition” value was -3% and the Z score is recorded as 0.26.

In the case of `O=C1CCN(c2ncnc3ccccc23)CCN1`, the “% Inhibition” value is given as -11% and the Z score is reported as 1.56.

As for `Cc1cc(C(=O)N(Cc2cccnc2)c2ccc(Cl)cc2)ncn1`, the “% Inhibition” value is -3% and the Z score stood at 0.41.

On to `O=C(N[C@@H]1CN(C2CCC2)C[C@H]1CO)c1ccccc1`, for which the “% Inhibition” value is recorded as -10% and the Z score is on record as 1.69.

`O=c1c2ccccc2nnn1CCOc1ccc(F)cc1`: the “% Inhibition” value is reported as -13% and the Z score stood at 1.5.

Take `COc1cc2cc(c1)C(=O)NCCCC(=O)N[C@H]1CN(C(=O)c3cnn(Cc4ccccc4)c3)CC[C@@H]1OCc1cccc(c1)O2`: the “% Inhibition” value is -10% and the Z score was 1.84.

Turning to `CN(C)C1CCC2C(C1)OCCN2C(=O)c1cc(C(C)(C)C)on1` (stereo not drawn), the “% Inhibition” value is listed as -9% and the Z score is 1.71.

Turning to `Nc1cccnc1-c1cccc(C(=O)N2CCC(F)(F)CC2)c1`, the “% Inhibition” value is on record as 6% and the Z score is reported as -1.15.

As for `CC(C)(C)C1(NC(=O)CCC(F)(F)F)CC1`, the “% Inhibition” value came to 5% and the Z score is on record as -0.6.

Turning to `COc1cc(NC(=O)Cn2c(N3CCN(c4ccccc4)CC3)nc(C)cc2=O)cc(OC)c1`, the “% Inhibition” value was -15% and the Z score came out at 1.32.

Take `Cc1cc(NC(=O)CCN2CCc3c(ncn3C)C2)no1`: the “% Inhibition” value is -1% and the Z score stood at 0.1.

Take `CN(CC1(O)CCOCC1)C(=O)NC1CC2CC1C1CCCC21` (stereo not drawn): the “% Inhibition” value is -4% and the Z score came out at 0.55.

As to `Cc1noc(C)c1C(=O)N[C@@H](CC(C)C)c1nnc2ccccn12`, the “% Inhibition” value was -7% and the Z score stood at 0.89.

For the compound `CC[n+]1c(C)sc2cc(-c3ccccc3)sc21`, the “% Inhibition” value is given as 32% and the Z score is -4.14.

`COc1cccc(CNC(=O)CC[C@H]2CCCN(c3nc4ccccc4o3)C2)c1`: the “% Inhibition” value worked out at 6% and the Z score is reported as -0.77.

As to `CCOCCS(=O)(=O)N1C[C@H](COC)OC(C)(C)C1`, the “% Inhibition” value is given as -12% and the Z score is 1.55.

As to `CC(=O)Nc1ccc(Br)c(C(=O)N(C)Cc2ccc3c(c2)OCO3)n1`, the “% Inhibition” value is -5% and the Z score came to 0.87.

Regarding `O=C1NC2(CCCCCCC2)C(=O)N1CCOc1ccccc1F`, the “% Inhibition” value was -7% and the Z score is reported as 1.07.

For the compound `CS(=O)(=O)CCN1CCC(NC(=O)c2c[nH]nc2-c2ccccc2)CC1`, the “% Inhibition” value is on record as -3% and the Z score came out at 0.52.

Regarding `CCc1onc(C)c1NC(=O)NCc1ccccc1CC(F)(F)F`, the “% Inhibition” value is given as -4% and the Z score stood at 0.73.

On to `CCOc1ccc(C(=O)C(CCC(CN2CCCCC2)C(=O)c2ccc(OCC)cc2)CN2CCCCC2)cc1` (stereo not drawn), for which the “% Inhibition” value is -5% and the Z score worked out at 0.69.

On to `Cn1c(=O)[nH]c(=O)c2nc(/C=C(\O)c3ccc(C(F)(F)F)cc3)c(O)nc21`, for which the “% Inhibition” value was found to be 9% and the Z score was -1.16.

Take `CCOC(=O)N1CCC(Nc2nc3c(-c4ccccc4)nnn3c3ccccc23)CC1`: the “% Inhibition” value is -11% and the Z score was 1.56.

Turning to `CCN(c1ccccc1)c1ccc(CNCc2nc(-c3cccnc3)n[nH]2)cc1`, the “% Inhibition” value was -4% and the Z score came to 0.63.

As to `Cc1nn(CCc2nc3c4cn[nH]c4ncn3n2)c(C)c1Cl`, the “% Inhibition” value is on record as 4% and the Z score was -0.61.

On to `C[C@@H](CCCC(C)(C)O)CCNCCC1(O)CCCC1`, for which the “% Inhibition” value is -11% and the Z score was 1.6.

On to `Cc1cccc(C2CC(C(=O)NCc3cccc(F)c3)CN(Cc3ccccc3F)C2)c1` (stereo not drawn), for which the “% Inhibition” value is reported as -7% and the Z score is reported as 0.67.

With `CN1CCC2(CCN(C(=O)c3ccc4c(c3)OCCO4)CC2)C1=O`, the “% Inhibition” value was -23% and the Z score was 3.03.

On to `Cc1ccc(-c2nn(-c3ccccc3)cc2C(=O)N2CC[C@H](CN)C2)o1`, for which the “% Inhibition” value was -1% and the Z score is reported as 0.21.

Take `CCC(=O)Nc1ccc2c(c1)c(=O)n(-c1ccccc1)n2CC(=O)NC1CCCC1`: the “% Inhibition” value was -16% and the Z score is on record as 2.03.

Consider `Cc1[nH]c(=O)c(C#N)c(C)c1CCC(=O)NC(C)CN1CCCC(C)C1` (stereo not drawn), for which the “% Inhibition” value is 6% and the Z score is recorded as -0.54.

For the compound `O=C(c1cc(C2CCCCC2)n[nH]1)N1CC2(CCC2)[C@@H]1C1CCOCC1`, the “% Inhibition” value was -18% and the Z score was 1.54.

Turning to `O=C(CCC1CCOCC1)Nc1ccc(C(=O)O)cc1`, the “% Inhibition” value was -5% and the Z score came to 0.54.

Take `CCC(=O)Nc1cc(-c2cc3ccccc3o2)nn1CCO`: the “% Inhibition” value is -1% and the Z score is 0.16.

Turning to `COc1ccc(-c2cnc3ncnn3c2N2CCCN(S(=O)(=O)c3cccc(F)c3)CC2)cc1OC`, the “% Inhibition” value was -4% and the Z score is 0.81.

For the compound `COc1ccccc1NC[C@H](O)Cn1c2c(c3cc(C)ccc31)CCCC2`, the “% Inhibition” value is recorded as 10% and the Z score is listed as -1.35.

As for `O=C(NCC(=O)N1Cc2ccccc2C1)NC1(CF)CCC1`, the “% Inhibition” value is reported as -11% and the Z score was determined as 2.13.

Consider `CCn1c(CC2CCN(Cc3ccc4nonc4c3)CC2)nn(C)c1=O`, for which the “% Inhibition” value is -5% and the Z score was determined as 0.92.

Regarding `CCCC[C@@H](C(=O)Nc1cc(C)on1)N1CCC(C(N)=O)CC1`, the “% Inhibition” value is -14% and the Z score was determined as 1.31.

As to `CC(C)(C)C1CNC(=O)C1C(=O)Nc1ccc(CCO)cc1` (stereo not drawn), the “% Inhibition” value is reported as 3% and the Z score is on record as -0.48.

As for `Cc1ccc2c(=O)n([C@@H](C)Cc3cccnc3)cnc2c1`, the “% Inhibition” value is -8% and the Z score came out at 1.12.

Take `O=C(Nc1nncs1)c1ccccc1NS(=O)(=O)c1ccc(Br)cc1`: the “% Inhibition” value came to 14% and the Z score is recorded as -1.69.

Turning to `c1ccc2[nH]c(-c3cn(CCCN4CCOCC4)nn3)nc2c1`, the “% Inhibition” value is reported as -4% and the Z score amounted to 0.56.

In the case of `CN(Cc1ccc(-n2cccn2)cc1)C(=O)c1cn(Cc2ccccc2Cl)nn1`, the “% Inhibition” value is -9% and the Z score is 1.38.

For `CCCC[C@H](CC)C(=O)Nc1ccc(F)cc1F`, the “% Inhibition” value is -4% and the Z score was found to be 0.49.

Take `O=C1C[C@H](NC2CCN(c3ncccn3)CC2)C(=O)N1c1ccc(Cl)cc1`: the “% Inhibition” value is on record as -9% and the Z score is listed as 0.98.

With `O=C1CC[C@@H](C(=O)OCc2csc(-c3ccccc3)n2)N1`, the “% Inhibition” value is listed as -17% and the Z score came to 1.69.

`Cc1ccc(-n2nc(C3CC3)nc2C2CC2)c(C)c1`: the “% Inhibition” value was -13% and the Z score is listed as 1.66.

`Cc1cccc(-n2nnnc2C2(NCCc3ccccc3)CCCC2)c1`: the “% Inhibition” value is given as -8% and the Z score stood at 1.14.

Take `Cc1nc(O)nc(O)c1S(=O)(=O)N1CCC(C(=O)NC2CCCCCCC2)CC1`: the “% Inhibition” value is recorded as -10% and the Z score came out at 1.28.

Take `CN(C)[C@@H](CNC(=O)Cc1ccsc1)c1ccsc1`: the “% Inhibition” value is given as -32% and the Z score was 3.24.

With `CC(C(=O)N1C[C@@H](F)C[C@H]1CO)n1cccn1` (stereo partly drawn), the “% Inhibition” value was -9% and the Z score is recorded as 1.44.

As for `Cc1ccccc1C(C)(C)Cn1nnnc1N1CCC(C(N)=O)CC1`, the “% Inhibition” value was -8% and the Z score is recorded as 0.92.

In the case of `O=C(NCc1ccc(Cn2cccn2)cc1)N1CC[C@@]12CCOC2`, the “% Inhibition” value was -12% and the Z score is 1.35.

Consider `COC1(C)CC(N(C)C(=O)C2CCc3[nH]nnc3C2)C1(C)C` (stereo not drawn), for which the “% Inhibition” value is listed as -4% and the Z score came to 0.38.

Consider `CCC(NC(=O)C(C)=Cc1ccco1)C(O)C(C)C` (stereo not drawn), for which the “% Inhibition” value is on record as -11% and the Z score is 2.13.

As for `COc1cc2c(cc1OC)C(C(C)NC(=O)c1ccccc1C)N(Cc1ccc(C)cc1)CC2` (stereo not drawn), the “% Inhibition” value was determined as 12% and the Z score is reported as -1.12.

For `Cc1ccccc1CN[C@@H](CCO)C(C)(C)C`, the “% Inhibition” value is -3% and the Z score stood at 0.53.

Regarding `Cc1ccc(-c2nc3ccc(C(=O)NCc4ccc(Cl)cc4)cc3nc2-c2ccc(C)cc2)cc1`, the “% Inhibition” value was determined as 3% and the Z score was -0.53.

On to `COc1ccc(C(=O)C(=O)Nc2ncccc2C)cc1`, for which the “% Inhibition” value is -12% and the Z score came out at 1.66.

As for `COCCN1C(=O)CC[C@]2(CNC(=O)CC3CCCCC3)CCC[C@@H]12`, the “% Inhibition” value is given as 2% and the Z score is -0.23.

As to `O=C(NCc1nnc2n1CCCC[C@H]2C1CCOCC1)c1ccco1`, the “% Inhibition” value is reported as -8% and the Z score is 1.29.

Regarding `CO[C@@H](C(=O)NCC1CCN(C(=O)c2n[nH]nc2C)CC1)c1ccccc1`, the “% Inhibition” value is on record as -8% and the Z score is 1.43.

As for `Cc1ccc(C2(c3noc(CN4CCN(Cc5nccn5C)CC4)n3)CCCC2)cc1`, the “% Inhibition” value is listed as -3% and the Z score stood at 0.34.

Regarding `O=C(O)C[C@@H]1CCN(CCCc2ccccc2)C[C@@H]1Cc1nc2ccc(F)cc2[nH]1`, the “% Inhibition” value is given as -16% and the Z score stood at 2.99.

Consider `Cc1nc(-c2cc(S(=O)(=O)Nc3ccc(F)c(Cl)c3)c(C)s2)sc1C`, for which the “% Inhibition” value is given as -13% and the Z score worked out at 1.62.

Turning to `N#Cc1cccc(C(=O)N2CCC(NC(=O)NC3CC3)CC2)c1`, the “% Inhibition” value is reported as -6% and the Z score is 0.82.

For `CCNC(=NCCOc1ncccc1Cl)NCC`, the “% Inhibition” value amounted to 5% and the Z score was -0.91.

As for `CCn1nnc2cc(C(=O)N3CCCCCCC3)ccc21`, the “% Inhibition” value is recorded as -10% and the Z score turned out to be 1.9.

Consider `O=C(NCC1(CO)CCCC1)c1ccc(CO)o1`, for which the “% Inhibition” value was 3% and the Z score is listed as -0.49.

For the compound `CCn1nc(CCOC)nc1-c1ccc2nccnc2c1`, the “% Inhibition” value is -1% and the Z score worked out at 0.14.

As to `CCc1nc(N)sc1C(=O)N1CC[C@](C)(O)[C@H](CC(C)C)C1`, the “% Inhibition” value is given as -2% and the Z score is given as 0.36.

`CCn1cc(CN2C[C@H]3CC[C@@H](C2)N(CC=C(C)C)C3)cn1`: the “% Inhibition” value is -2% and the Z score was 0.19.

For the compound `Cc1ccc(-n2ncc3c(=O)n(CC(=O)N(C)c4ccccc4)cnc32)c(C)c1`, the “% Inhibition” value turned out to be 8% and the Z score was -1.09.

`O=C(Nc1ccnn1C1CCN(CCCn2cccn2)CC1)C1CCCC1`: the “% Inhibition” value came out at 9% and the Z score was -1.09.

`Cn1nncc1C1(O)CN(c2nccc(Oc3ccccc3)n2)C1`: the “% Inhibition” value is -1% and the Z score came to 0.16.
